Reference: the supplement of paper PMC4967469
Lines with a small IC50 respond at low doses; fits outside the tested doses are given as limits. AUC, from the same fit, is the share of area under the viability curve across the 256-fold dose range; the more sensitive the line, the further below 1. For part of these data: A top dose marked as inferred is not printed in the source and was worked back from the curve model.

Key:
Assay in all cases: Viability of human cancer cell lines after 72 h of drug (GDSC screen)
XMD15-27 = compound: C=CC(=O)Nc1ccc(C(=O)c2sc(Nc3ccc(N4CCN(C)CC4)cc3OC)nc2N)cc1 [XMD15-27]; details: top dose 10.24 µM; top dose inferred
Experimental: (§1)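 Human cancer cell lines in 384-well plates, medium with 10% serum, drug for 72 h over a 256-fold dose range (nine 2-fold or five 4-fold steps up to the top dose). Adherent lines were fixed and stained with the nucleic acid dye Syto60, suspension lines read with resazurin; signal relative to control wells, capped at 0 and 100%. One two-parameter sigmoid per drug and line, fitted in a mixed model over all curves with the slope shared within a line.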

SL 0101-1 = compound: CC(=O)O[C@@H]1[C@@H](OC(C)=O)[C@@H](O)[C@H](Oc2c(-c3ccc(O)cc3)oc3cc(O)cc(O)c3c2=O)O[C@H]1C [SL 0101-1]; details: top dose 10 µM; top dose inferred
Experimental: as §1

Temsirolimus = compound: CO[C@H]1C[C@@H]2CC[C@@H](C)[C@@](O)(O2)C(=O)C(=O)N2CCCC[C@H]2C(=O)O[C@H]([C@H](C)C[C@@H]2CC[C@@H](OC(=O)C(C)(CO)CO)[C@H](OC)C2)CC(=O)[C@H](C)/C=C(\C)[C@@H](O)[C@@H](OC)C(=O)[C@H](C)C[C@H](C)/C=C/C=C/C=C/1C [Temsirolimus]; details: top dose 0.2 µM
Experimental: as §1

Row | Cell Line | AUC (XMD15-27) | IC50 (XMD15-27) | AUC (SL 0101-1) | IC50 (SL 0101-1) | AUC (Temsirolimus) | IC50 (Temsirolimus)
1 | U-698-M (B-cell leukaemia, suspension) | 0.984 | > 10.2 µM | 0.987 | > 10 µM | 0.539 | 15.9 nM
2 | UACC-62 (melanoma, adherent) | 0.988 | > 10.2 µM | 0.974 | > 10 µM | 0.96 | > 200 nM
3 | UACC-257 (melanoma, adherent) | 0.979 | > 10.2 µM | 0.979 | > 10 µM | 0.904 | > 200 nM
4 | UACC-893 (breast, adherent) | 0.978 | > 10.2 µM | 0.983 | > 10 µM | 0.943 | > 200 nM
5 | UWB1.289 (ovary, adherent) | 0.979 | > 10.2 µM | 0.979 | > 10 µM | 0.86 | > 200 nM
6 | VA-ES-BJ (soft tissue, adherent) | 0.986 | > 10.2 µM | 0.966 | > 10 µM | 0.44 | 8.48 nM
7 | VAL (B-cell lymphoma, suspension) | 0.98 | > 10.2 µM | 0.987 | > 10 µM | 0.716 | 51.3 nM
8 | VCaP (prostate, adherent) | 0.987 | > 10.2 µM | 0.984 | > 10 µM | 0.987 | > 200 nM
9 | VMRC-RCZ (kidney, adherent) | 0.975 | > 10.2 µM | 0.981 | > 10 µM | 0.777 | 94.3 nM
10 | WIL2-NS (lymphoid neoplasm, suspension) | 0.973 | > 10.2 µM | 0.992 | > 10 µM | 0.94 | > 200 nM
11 | WM35 (melanoma, adherent) | 0.986 | > 10.2 µM | 0.979 | > 10 µM | 0.672 | 38 nM
12 | WM793B (melanoma, adherent) | 0.966 | > 10.2 µM | 0.979 | > 10 µM | 0.648 | 33.7 nM
13 | WM1552C (melanoma, adherent) | 0.971 | > 10.2 µM | 0.969 | > 10 µM | 0.853 | 158 nM
14 | WM-115 (melanoma, adherent) | 0.952 | > 10.2 µM | 0.962 | > 10 µM | 0.753 | 80.5 nM
15 | WSU-DLCL2 (B-cell lymphoma, suspension) | 0.96 | > 10.2 µM | 0.991 | > 10 µM | 0.453 | 9.5 nM
16 | WSU-NHL (lymphoid neoplasm, suspension) | 0.99 | > 10.2 µM | 0.99 | > 10 µM | 0.341 | 4.79 nM
17 | YAPC (pancreas, adherent) | 0.982 | > 10.2 µM | 0.982 | > 10 µM | 0.963 | > 200 nM
18 | YH-13 (glioma, adherent) | 0.954 | > 10.2 µM | 0.981 | > 10 µM | 0.609 | 25.3 nM
19 | YKG-1 (glioma, adherent) | 0.982 | > 10.2 µM | 0.932 | > 10 µM | 0.787 | 88.2 nM
20 | YT (lymphoid neoplasm, suspension) | 0.992 | > 10.2 µM | 0.959 | > 10 µM | 0.354 | 5.28 nM
21 | no-11 (glioma, adherent) | 0.97 | > 10.2 µM | 0.969 | > 10 µM | 0.886 | > 200 nM
